# Among all 310,000 compounds or so, about 2,200 (0.71%) showed an effect of 50% or more. The effect is printed as a negative number. Some of the results follow.
# Target: human ether-à-go-go-related gene (hERG) potassium channel (human, UniProt Q12809)
# Experiment: primary screen, population patch clamp on CHO cells stably expressing hERG
# Sequence of human ether-à-go-go-related gene (hERG) potassium channel (Q12809 whole entry, looked up): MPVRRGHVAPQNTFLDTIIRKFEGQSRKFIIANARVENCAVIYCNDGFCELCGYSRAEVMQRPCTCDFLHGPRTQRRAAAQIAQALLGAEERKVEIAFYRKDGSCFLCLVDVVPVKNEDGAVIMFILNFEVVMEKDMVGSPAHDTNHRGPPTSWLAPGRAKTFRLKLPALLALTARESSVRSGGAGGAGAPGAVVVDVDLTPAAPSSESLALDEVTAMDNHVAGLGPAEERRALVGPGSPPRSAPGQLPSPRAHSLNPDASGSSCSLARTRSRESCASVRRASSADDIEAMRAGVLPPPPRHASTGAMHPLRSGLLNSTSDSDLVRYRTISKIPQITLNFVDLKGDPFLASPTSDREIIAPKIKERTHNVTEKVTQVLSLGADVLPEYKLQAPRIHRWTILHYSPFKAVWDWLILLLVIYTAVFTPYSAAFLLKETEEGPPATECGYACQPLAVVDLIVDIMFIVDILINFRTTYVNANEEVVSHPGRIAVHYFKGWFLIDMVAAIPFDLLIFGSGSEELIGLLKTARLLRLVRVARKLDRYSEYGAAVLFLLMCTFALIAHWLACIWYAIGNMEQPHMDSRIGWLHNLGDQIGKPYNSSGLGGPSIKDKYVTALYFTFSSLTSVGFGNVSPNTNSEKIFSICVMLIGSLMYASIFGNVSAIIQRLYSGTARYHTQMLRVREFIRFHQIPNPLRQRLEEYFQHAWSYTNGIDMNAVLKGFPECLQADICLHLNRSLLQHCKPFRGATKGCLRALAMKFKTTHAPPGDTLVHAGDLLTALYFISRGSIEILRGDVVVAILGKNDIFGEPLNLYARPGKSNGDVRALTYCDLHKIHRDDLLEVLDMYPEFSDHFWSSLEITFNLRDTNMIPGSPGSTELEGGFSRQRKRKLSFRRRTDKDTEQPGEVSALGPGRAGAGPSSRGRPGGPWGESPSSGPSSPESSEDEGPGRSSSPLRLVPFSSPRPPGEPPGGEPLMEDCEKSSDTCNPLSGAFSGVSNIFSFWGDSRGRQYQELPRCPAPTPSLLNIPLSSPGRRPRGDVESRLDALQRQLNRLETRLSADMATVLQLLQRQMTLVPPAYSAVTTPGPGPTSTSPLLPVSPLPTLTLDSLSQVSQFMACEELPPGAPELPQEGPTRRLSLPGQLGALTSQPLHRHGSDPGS
row,SMILES,"hERG current change (%, negative = inhibition) at 1uM [%]"
1,CN(C)S(=O)(=O)Nc1cccc(-c2cn3c(n2)SCC3)c1,15.4
2,Cc1ccc(C(=O)c2oc3ccccc3c2N)cc1,0.215
3,CCN(CC)S(=O)(=O)c1ccc(C(=O)N2CCN=C2SCc2cccnc2)cc1,1.98
4,Cc1ccccc1/C=C/c1nc2ccccc2c(=O)n1CCc1ccccc1,10.1
5,CCc1cc(C(c2ccccn2)N2CCN(C)CC2)c(NC(=O)c2ccccc2)s1 (stereo not shown),-1.07
6,O=c1c2[nH]c3ccc(Cl)cc3c2ncn1CCN1CCCCC1,-43.9
7,CN1Cc2cccnc2N(C)Cc2cc(Cl)ccc21,0.37
8,COc1cc2c(cc1OC)CN(C(=O)c1ccco1)CC2,11.3
9,Clc1ccc(C(c2nnnn2C2CCCC2)N2CCSCC2)cc1 (stereo not shown),-2.04
10,CCNc1nc(CC)nc2c1oc1ccccc12.Cl,-4.86
11,Cn1c(=O)c2c([nH]c(=O)n2C)n(C)c1=O,18.7
12,CCOC(=O)CCc1c(C)nc2ncnn2c1C,-3.06
13,O=[N+]([O-])c1ccc(CN2CCN(c3ncccn3)CC2)cc1,5.23
14,CC1(c2ccc3c(c2)OCCCO3)NC(=O)N(CC(=O)Nc2cccc(C#N)c2)C1=O (stereo not shown),13.2
15,COc1ccc(F)cc1S(=O)(=O)N1CCN(c2ccccn2)CC1,14
16,CCS(=O)(=O)N1Cc2ccccc2CC1C(=O)Nc1ncc(C)s1 (stereo not shown),7.83
17,NNC(=S)Nc1cc(S(=O)(=O)N2CCOCC2)ccc1N1CCOCC1,7.2
18,COc1ccc(-n2c(Cc3cccn3C)nnc2SCC(=O)Nc2cccc(F)c2)cc1,-23.3
19,Cc1ccc(C=Nc2cccnc2N)cc1,18.6
20,COc1ccc(NC(=O)CCNS(=O)(=O)c2ccc(Cl)c([N+](=O)[O-])c2)cc1S(N)(=O)=O,13.3

row,SMILES,"hERG current change (%, negative = inhibition) at 1uM [%]"
1,CC(OC(=O)CN1C(=O)c2ccccc2C1=O)C(=O)c1ccccc1 (stereo not shown),5.39
2,Cc1onc(C(=O)N2C(C)CCCC2C)c1[N+](=O)[O-] (stereo not shown),10.3
3,O=C(CCC(=O)c1ccccc1)NCc1cccc(C(F)(F)F)c1,12
4,CNc1nc(-c2ccc3c(c2)CCN3C(=O)c2ccccc2C)cs1,-11
5,O=C(CN1C(=O)c2ccccc2C1=O)Nc1ccccc1N1CCOCC1,12.3
6,COc1cc(/C=N/n2cnnc2)ccc1OCC(=O)N1CCOCC1,16.5
7,CCOc1ccc(C(=O)OCC(=O)NC(C)C)cc1,18
8,CC(=NCCC1=CCCCC1)c1c(O)[nH]c(=O)[nH]c1=O,7.55
9,CCCCNC(=O)Nc1ccon1,12
10,CC(C)Oc1ccc(C(=O)OCC(=O)N2CCCc3ccccc32)cc1,17
11,O=C(CCNC(=O)N1C[C@H]2C[C@@H](C1)c1cccc(=O)n1C2)Nc1ccc(F)cc1,19.3
12,COc1ccccc1C1=NOC(Cn2c(NCCCO)nc3c2c(=O)n(C)c(=O)n3C)C1 (stereo not shown),3.11
13,COc1ccc(NC2=CC(=O)CC(C)(C)C2)cc1,8.24
14,CCOC(=O)C(Nc1ccc2ccccc2c1)C(=O)OCC,8.71
15,CC(C)CC(=O)N/C(N)=N/c1nc2ccccc2o1,8.41
16,CCNC(=S)NC1CC2CCCC(C1)N2Cc1ccc(C)cc1 (stereo not shown),-12.3
17,Cc1ccc(/C(N)=N/OC(=O)c2ccc(Cl)cc2Cl)cc1,6.75
18,CN(Cc1ccccc1)C(=O)COC(=O)C1CCN(S(=O)(=O)c2ccc(Cl)c(C(F)(F)F)c2)CC1,1.91
19,COCCC(=O)N1CCC(Oc2ccc(C(=O)NCc3cccc(C)n3)cc2)CC1,18.1
20,CC(NC(=O)c1cnc2ccccc2n1)c1ccccc1 (stereo not shown),13.8

row,SMILES,"hERG current change (%, negative = inhibition) at 1uM [%]"
1,CCC(=O)Nc1ccc(NC(=O)CSc2nnnn2CC)cc1C,8.74
2,O=C(NC(=S)Nc1ccc(Cl)cn1)C12CC3CC(CC(C3)C1)C2,-4.2
3,CC(C)(C)OC(=O)NCCCC[C@@H](C(=O)NCCCCCCCCCCC(=O)N1CCN(C(=O)OC(C)(C)C)CC1)n1cc(CCCC(=O)O)nn1,19.9
4,COc1ccccc1CNC(=O)CCS(=O)(=O)c1ccc2c(c1)CCCN2C(C)=O,1.46
5,Cc1nc(SCC(=O)N(C)Cc2ccco2)c2c(C)c(C)sc2n1,8.02
6,COc1cc(S(=O)(=O)n2cnc3ccccc32)ccc1Br,19.5
7,Oc1ccc(/C=N/N2CCN(Cc3ccccc3)CC2)cc1,14.6
8,Cc1ccc(NC(=O)c2cccc(NC(=O)CC3SC(N4CCCCC4)=NC3=O)c2)nc1 (stereo not shown),7.13
9,N#C/C(=C\c1ccc(O)c(O)c1)C(=O)N1CCc2ccccc21,1.57
10,CCNC(=S)NS(=O)(=O)c1ccc(Cl)cc1,9.86
11,O=C(C1CC2C=CC1C2)N1CCN(c2ccccc2)CC1 (stereo not shown),5.85
12,Cc1cc(C)n(C(=O)CSc2nnc(SCC(=O)n3nc(C)cc3C)s2)n1,11.6
13,CCCCN(C(=O)CSc1nnc(-c2ccccc2OC)n1C)c1c(N)n(Cc2ccccc2)c(=O)[nH]c1=O,14.5
14,O=C(NNc1nc2cc3c(cc2s1)OCO3)c1cccc(F)c1,5.22
15,Cc1sc2ncn(CC(=O)NCCN3CCOCC3)c(=O)c2c1S(=O)(=O)N1CCC(C)CC1,22.6
16,O=C1OCCC1S(=O)(=O)c1ccc2ccccc2c1 (stereo not shown),-5.47
17,Cc1cc2cc(CNC(=O)Nc3ccc(Cl)c(Cl)c3)ccc2n1C,1.97
18,O=C(O)COc1ccccc1/C=C1\C(=O)NC(=O)N(CCC2=CCCCC2)C1=O,16.7

# Reference: PMC4336329 (PLoS ONE, 2015)
